Experimental data published in the supplement of paper PMC9588766.
Counter-ions that a name gives are not always drawn. The full ranking holds about 1,900 compounds; the median of “cell viability of compound + 1 nM pemigatinib relative to pemigatinib-only (DMSO) wells” is about 0.95, and the lowest 2% start at about 0.22. The list shows a part of the results.

What follows are compounds tested on PDC-DUC18828 (assay: cell viability of compound + 1 nM pemigatinib relative to pemigatinib-only (DMSO) wells (fraction); PDC-DUC18828 is a patient-derived cholangiocarcinoma cell line; higher = less growth inhibition). Settings: first compound 1 µM; pemigatinib concentration 1 nM; 72 h.
Experimental: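 Selleck Bioactive library screen in the patient-derived FGFR2 fusion-positive ICC cell line PDC-DUC18828 (500 cells/well). Each compound was tested at 1 uM with 1 nM pemigatinib, in triplicate, for 72 h. Viability was read by CellTiter-Glo and normalised to plate DMSO controls. Value is the paper's averaged normalised viability.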
With Nc1nccs1 [Aminothiazole] + CCN1C(=O)N(c2c(F)c(OC)cc(OC)c2F)Cc2cnc3[nH]c(CN4CCOCC4)cc3c21 [pemigatinib] the cell viability was 0.985.
Cn1c(=O)c2c(ncn2CC(O)CO)n(C)c1=O (stereo unspecified) [Dyphylline] + CCN1C(=O)N(c2c(F)c(OC)cc(OC)c2F)Cc2cnc3[nH]c(CN4CCOCC4)cc3c21 [pemigatinib] was tested, and the cell viability was 0.996.
For CCCc1nc(C(C)(C)O)c(C(=O)OCc2oc(=O)oc2C)n1Cc1ccc(-c2ccccc2-c2nnn[nH]2)cc1 [Olmesartan Medoxomil] + CCN1C(=O)N(c2c(F)c(OC)cc(OC)c2F)Cc2cnc3[nH]c(CN4CCOCC4)cc3c21 [pemigatinib], the cell viability was 0.997.
NCc1c[nH]c(=S)n1[C@H]1CCc2c(F)cc(F)cc2C1 [Nepicastat (SYN-117) HCl] + CCN1C(=O)N(c2c(F)c(OC)cc(OC)c2F)Cc2cnc3[nH]c(CN4CCOCC4)cc3c21 [pemigatinib] gave a cell viability of 1.01.
For CCCCCCCCCCCCCCCC[N+](C)(C)C [Cetrimonium Bromide (CTAB)] + CCN1C(=O)N(c2c(F)c(OC)cc(OC)c2F)Cc2cnc3[nH]c(CN4CCOCC4)cc3c21 [pemigatinib], the cell viability was 0.93.
O=C(NCc1ccc(Oc2ccccc2)cc1)c1nc(-c2cc(Br)c(O)c(Br)c2)no1 + CCN1C(=O)N(c2c(F)c(OC)cc(OC)c2F)Cc2cnc3[nH]c(CN4CCOCC4)cc3c21 [pemigatinib] gave a cell viability of 0.968.
Work on Cc1c(Cn2c(C)nc3c(C(=O)O)cc(N4CCOCC4)cc32)cccc1C(F)(F)F + CCN1C(=O)N(c2c(F)c(OC)cc(OC)c2F)Cc2cnc3[nH]c(CN4CCOCC4)cc3c21 [pemigatinib] yielded a cell viability of 0.85.
S=c1nc[nH]c2nc[nH]c12 [6-Mercaptopurine (6-MP) Monohydrate] + CCN1C(=O)N(c2c(F)c(OC)cc(OC)c2F)Cc2cnc3[nH]c(CN4CCOCC4)cc3c21 [pemigatinib] gave a cell viability of 0.893.
Work on CC(C)N(CCC(=O)c1ccc2ccccc2c1)Cc1ccccc1 + CCN1C(=O)N(c2c(F)c(OC)cc(OC)c2F)Cc2cnc3[nH]c(CN4CCOCC4)cc3c21 [pemigatinib] yielded a cell viability of 1.01.
With CC(C)(C)C#Cc1cc(N(C(=O)[C@H]2CC[C@H](C)CC2)[C@H]2CC[C@H](O)CC2)c(C(=O)O)s1 [VX-222 (VCH-222, Lomibuvir)] + CCN1C(=O)N(c2c(F)c(OC)cc(OC)c2F)Cc2cnc3[nH]c(CN4CCOCC4)cc3c21 [pemigatinib] the cell viability was 0.987.
In the case of CCOC(=O)c1ccc(C#Cc2ccc3c(c2)C(C)(C)CCS3)nc1 [Tazarotene] + CCN1C(=O)N(c2c(F)c(OC)cc(OC)c2F)Cc2cnc3[nH]c(CN4CCOCC4)cc3c21 [pemigatinib], the cell viability is reported as 0.991.
Compound CCC(C)(C)c1ccc(CC(C)CN2C[C@@H](C)O[C@@H](C)C2)cc1 (stereo partly specified) [Amorolfine HCl] + CCN1C(=O)N(c2c(F)c(OC)cc(OC)c2F)Cc2cnc3[nH]c(CN4CCOCC4)cc3c21 [pemigatinib] has a cell viability of 0.942.
Work on COc1ccc(-c2cc3c(C)nc(N)nc3n([C@H]3CC[C@H](OCCO)CC3)c2=O)cn1 + CCN1C(=O)N(c2c(F)c(OC)cc(OC)c2F)Cc2cnc3[nH]c(CN4CCOCC4)cc3c21 [pemigatinib] yielded a cell viability of 0.16.
Work on COc1ccc(/C=C/C(=O)C2(C(=O)/C=C/c3ccc(OC)c(OC)c3)CCCCC2)cc1OC + CCN1C(=O)N(c2c(F)c(OC)cc(OC)c2F)Cc2cnc3[nH]c(CN4CCOCC4)cc3c21 [pemigatinib] yielded a cell viability of 0.852.
Cn1c(=O)c(F)c(Nc2ccc(I)cc2F)c2c(=O)n(C[C@@H](O)CO)cnc21 + CCN1C(=O)N(c2c(F)c(OC)cc(OC)c2F)Cc2cnc3[nH]c(CN4CCOCC4)cc3c21 [pemigatinib] was tested, and the cell viability was 0.527.
CCN1CCC[C@H]1CNC(=O)c1cc(S(N)(=O)=O)ccc1OC [Levosulpiride] + CCN1C(=O)N(c2c(F)c(OC)cc(OC)c2F)Cc2cnc3[nH]c(CN4CCOCC4)cc3c21 [pemigatinib] showed a cell viability of 1.03.
Nc1ccc(S(N)(=O)=O)cc1 [Sulfanilamide] + CCN1C(=O)N(c2c(F)c(OC)cc(OC)c2F)Cc2cnc3[nH]c(CN4CCOCC4)cc3c21 [pemigatinib] gave a cell viability of 0.974.
CCOc1nc2cccc(C(=O)OC(C)OC(=O)OC3CCCCC3)c2n1Cc1ccc(-c2ccccc2-c2nn[nH]n2)cc1 (stereo unspecified) [Candesartan Cilexetil] + CCN1C(=O)N(c2c(F)c(OC)cc(OC)c2F)Cc2cnc3[nH]c(CN4CCOCC4)cc3c21 [pemigatinib] gave a cell viability of 0.991.
In the case of CCCNS(=O)(=O)Nc1ncnc(OCCOc2ncc(Br)cn2)c1-c1ccc(Br)cc1 [Macitentan] + CCN1C(=O)N(c2c(F)c(OC)cc(OC)c2F)Cc2cnc3[nH]c(CN4CCOCC4)cc3c21 [pemigatinib], the cell viability is reported as 0.939.
COc1cc2c(NC3CCN(CC4CCCCC4)CC3)nc(N3CCCN(C(C)C)CC3)nc2cc1OCCCN1CCCCC1 + CCN1C(=O)N(c2c(F)c(OC)cc(OC)c2F)Cc2cnc3[nH]c(CN4CCOCC4)cc3c21 [pemigatinib] was tested, and the cell viability was 0.955.
Work on COc1ccc(-c2ccc3cc(C(=O)O)ccc3c2)cc1C12CC3CC(CC(C3)C1)C2 [Adapalene] + CCN1C(=O)N(c2c(F)c(OC)cc(OC)c2F)Cc2cnc3[nH]c(CN4CCOCC4)cc3c21 [pemigatinib] yielded a cell viability of 0.999.
In the case of Cc1cccc(N(C)C(=S)Oc2ccc3ccccc3c2)c1 [Tolnaftate] + CCN1C(=O)N(c2c(F)c(OC)cc(OC)c2F)Cc2cnc3[nH]c(CN4CCOCC4)cc3c21 [pemigatinib], the cell viability is reported as 0.997.
C=CCNC1=C2C[C@@H](C)C[C@H](OC)[C@H](O)[C@@H](C)/C=C(\C)[C@H](OC(N)=O)[C@@H](OC)/C=C\C=C(/C)C(=O)NC(=CC1=O)C2=O [17-AAG (Tanespimycin)] + CCN1C(=O)N(c2c(F)c(OC)cc(OC)c2F)Cc2cnc3[nH]c(CN4CCOCC4)cc3c21 [pemigatinib] gave a cell viability of 0.309.
In the case of CN1CCN(c2ccc3nc(-c4c(N)c5c(F)cccc5[nH]c4=O)[nH]c3c2)CC1 [Dovitinib (TKI-258, CHIR-258)] + CCN1C(=O)N(c2c(F)c(OC)cc(OC)c2F)Cc2cnc3[nH]c(CN4CCOCC4)cc3c21 [pemigatinib], the cell viability is reported as 1.01.
With CN1CCN(c2ccc3nc(-c4c(N)c5c(F)cccc5[nH]c4=O)[nH]c3c2)CC1 [Dovitinib (TKI258) Lactate] + CCN1C(=O)N(c2c(F)c(OC)cc(OC)c2F)Cc2cnc3[nH]c(CN4CCOCC4)cc3c21 [pemigatinib] the cell viability was 0.789.
For O=c1[nH]c(=O)n([C@H]2C[C@H](O)[C@@H](CO)O2)cc1I [Idoxuridine] + CCN1C(=O)N(c2c(F)c(OC)cc(OC)c2F)Cc2cnc3[nH]c(CN4CCOCC4)cc3c21 [pemigatinib], the cell viability was 0.943.
Work on CCCCc1oc2ccccc2c1C(=O)c1cc(I)c(OCCN(CC)CC)c(I)c1 [Amiodarone HCl] + CCN1C(=O)N(c2c(F)c(OC)cc(OC)c2F)Cc2cnc3[nH]c(CN4CCOCC4)cc3c21 [pemigatinib] yielded a cell viability of 0.955.
O=C(O)c1cccnc1 [Nicotinic Acid] + CCN1C(=O)N(c2c(F)c(OC)cc(OC)c2F)Cc2cnc3[nH]c(CN4CCOCC4)cc3c21 [pemigatinib] showed a cell viability of 0.997.
O=C(O)CCCN1CCC(O[C@@H](c2ccc(Cl)cc2)c2ccccn2)CC1 [Bepotastine Besilate] + CCN1C(=O)N(c2c(F)c(OC)cc(OC)c2F)Cc2cnc3[nH]c(CN4CCOCC4)cc3c21 [pemigatinib] gave a cell viability of 0.913.
Work on Cc1ccc(S(=O)(=O)OCC(=O)Nc2ccc(C(=O)O)c(O)c2)cc1 + CCN1C(=O)N(c2c(F)c(OC)cc(OC)c2F)Cc2cnc3[nH]c(CN4CCOCC4)cc3c21 [pemigatinib] yielded a cell viability of 0.974.
C[C@H]1C[C@H]2[C@@H]3CCC4=CC(=O)C=C[C@]4(C)[C@H]3C(=O)C[C@]2(C)[C@@]1(O)C(=O)CO [Meprednisone] + CCN1C(=O)N(c2c(F)c(OC)cc(OC)c2F)Cc2cnc3[nH]c(CN4CCOCC4)cc3c21 [pemigatinib] was tested, and the cell viability was 0.953.
Compound CC1(C)C=C(CN2C/C(=C\c3ccc(F)cc3)C(=O)/C(=C/c3ccc(F)cc3)C2)C(C)(C)N1O + CCN1C(=O)N(c2c(F)c(OC)cc(OC)c2F)Cc2cnc3[nH]c(CN4CCOCC4)cc3c21 [pemigatinib] has a cell viability of 0.956.
In the case of NNC(=O)c1ccncc1 [Isoniazid] + CCN1C(=O)N(c2c(F)c(OC)cc(OC)c2F)Cc2cnc3[nH]c(CN4CCOCC4)cc3c21 [pemigatinib], the cell viability is reported as 0.983.
CO[C@H]1C[C@@H]2CC[C@@H](C)[C@@](O)(O2)C(=O)C(=O)N2CCCC[C@H]2C(=O)O[C@H]([C@H](C)C[C@@H]2CC[C@@H](OC(=O)C(C)(CO)CO)[C@H](OC)C2)CC(=O)[C@H](C)/C=C(\C)[C@@H](O)[C@@H](OC)C(=O)[C@H](C)C[C@H](C)/C=C/C=C/C=C/1C + CCN1C(=O)N(c2c(F)c(OC)cc(OC)c2F)Cc2cnc3[nH]c(CN4CCOCC4)cc3c21 [pemigatinib] showed a cell viability of 0.571.
CCC[C@@H]1C[C@@H](C(=O)N[C@@H]([C@H]2O[C@H](SC)[C@H](O)[C@@H](O)[C@H]2O)[C@@H](C)O)N(C)C1 [Lincomycin HCl] + CCN1C(=O)N(c2c(F)c(OC)cc(OC)c2F)Cc2cnc3[nH]c(CN4CCOCC4)cc3c21 [pemigatinib] was tested, and the cell viability was 0.99.
N#Cc1c(Oc2ccc(F)c(NC(=O)Cc3cccc(C(F)(F)F)c3)c2)ccc2nc(NC(=O)C3CC3)sc12 + CCN1C(=O)N(c2c(F)c(OC)cc(OC)c2F)Cc2cnc3[nH]c(CN4CCOCC4)cc3c21 [pemigatinib] showed a cell viability of 0.938.
